About 1,700 (3.3%) of roughly 52,000 compounds were called active. Rule as the data show it: active = survival mostly below about 52% (no sharp cut-off); inactive = mostly above about 56%. Some of the results follow.

Survival data for 23 compounds are collected here from PubChem BioAssay AID463173 (ICCB-Longwood Screening Facility, Harvard Medical School, 2010).

This assay has as its system Wild type. Kind of assay: S. aureus survival, RN4220 and DeltatarO strains – OD600, teichoic acid synthesis inhibitors, primary screen (AID 463173). Particulars: S. aureus RN4220 wild type/DeltatarO growth, OD600, 18 h, active compounds read low, screened at 18.75 µg/mL (by protocol).
In the case of `CC(C)(C)OC(=O)N1CCC(c2c(C(=O)N3CCN(C(=O)c4ccco4)CC3)cnn2-c2ccccc2)CC1`, the survival is inactive: 80%. For `Cc1cccc(CCNC(=O)C2CCCN(S(=O)(=O)c3ccc4c(c3)oc(=O)n4C)C2)c1` (stereo not drawn), the survival is inactive: 93%. Consider `CCOc1cccc2sc(N(CCN(CC)CC)C(=O)c3ccco3)nc12`, for which the survival was inactive: 133%. `COc1ccc(CCNC(=O)c2ccc(CNS(=O)(=O)c3ccccc3)cc2)cc1OC`: the survival is inactive: 126%. Turning to `COc1cc(NC(=O)c2ccc(NC(=O)N3CCSc4ncccc43)cc2)cc(OC)c1`, the survival is inactive: 71%. With `Cc1ccc2nc(Cl)c3cc(C(=O)NC4CCCCCC4)sc3c2c1`, the survival is inactive: 119%.

On to `CCC1CN(C(=O)Nc2ccc(C(=O)O)cc2)c2cc(Cl)ccc2O1` (stereo not drawn), for which the survival is inactive: 76%. For `O=C(CSc1cn(CC(=O)N2CCCC2)c2ccccc12)Nc1cc(C(F)(F)F)ccc1Cl` the value was inactive: 88%; for `COc1cc(NC(=O)c2c(C)oc3ncnc(N4CCCCC4)c23)cc(OC)c1`, inactive: 121%; for `CCCS(=O)(=O)c1nc(S(=O)(=O)c2ccc(C)cc2)c(NCc2ccccc2)s1`, inactive: 132%. For `CN(Cc1ccccc1)C(=O)c1cn(C)c2ccc(S(=O)(=O)N(C)C3CCCCC3)cc2c1=O` the value was inactive: 87%; for `Cc1ccc2c(c1)c(=O)c1ccccc1n2CCCC(=O)Nc1c(F)cccc1F`, inactive: 69%; for `Cc1cccc(Cn2c(SCc3ccc(C(=O)NC4CCCCC4)cc3)nc3ccncc32)c1`, inactive: 90%. Regarding `COc1ccc(NC(=O)c2c(C)oc3ccc(O)c(CN4CCN(Cc5ccccc5)CC4)c23)cc1`, the survival is inactive: 71%. Take `CCC(=O)N1CCc2cc(S(=O)(=O)CCC(=O)NCc3cccc(OC)c3)ccc21`: the survival is inactive: 119%.

As to `COc1ccc(/C=C(/C#N)c2nc(-c3ccc(Br)cc3)cs2)cc1`, the survival was inactive: 64%. With `CCOC(=O)c1ccc(N2C(=O)c3n[nH]c(-c4cccs4)c3C2c2ccc(Cl)cc2Cl)cc1` (stereo not drawn) the figure was inactive: 21%; with `Cc1cc(Br)ccc1NC(=O)C1CCN(S(=O)(=O)c2ccc(Br)s2)CC1`, inactive: 70%.

Consider `CCOc1ccc(NC(=O)CCS(=O)(=O)c2ccc(Br)cc2)cc1`, for which the survival was inactive: 73%. For `Cc1ccc2c(c1)-c1c(cnn1CC(=O)Nc1ccccc1C#N)CO2`, the survival is inactive: 130%. With `Cc1ccc(C(=O)COC(=O)CCC(=O)Nc2ccc(Oc3cc(C)ccc3C(C)C)cc2)cc1` the figure was inactive: 76%.

Turning to `CCc1ccc(C2=NN(CCC(=O)NCCc3ccc(Cl)cc3)C(=O)CC2)cc1`, the survival is inactive: 133%. For `CC(=O)N1CCCc2cc(S(=O)(=O)N3CCCC(C(=O)N4CCN(c5cc(C)ccc5C)CC4)C3)ccc21` (stereo not drawn) the value was inactive: 85%.
